Source: PMC9911399, “Two distinct binding modes provide the RNA-binding protein RbFox with extraordinary sequence specificity”
Numbering of substitutions follows the chain as printed; changes in the protein carry UniProt numbers. The list shows a part of the results.

B1: UAAGUCG (DNA:RNA)
RNA: GGGAGACCGGAAUUCAGAUUGUCCUAAGUCGUUAAAUCCCGUCGUAGCCACCA
DNA 1: CAATCTGAATTCCGGTCTCCC
DNA 2: TGGTGGCTACGACGGGATT
B2: CUGUUCC (DNA:RNA)
RNA: B1 RNA with U25C, A26U, A27G, G28U, G31C
DNA 1: CAATCTGAATTCCGGTCTCCC
DNA 2: TGGTGGCTACGACGGGATT
B3: ACGUGCG (DNA:RNA)
RNA: B1 RNA with U25A, A26C, A27G, G28U, U29G
DNA 1: CAATCTGAATTCCGGTCTCCC
DNA 2: TGGTGGCTACGACGGGATT
B4: CUCGUUA (DNA:RNA)
RNA: B1 RNA with U25C, A26U, A27C, C30U, G31A
DNA 1: CAATCTGAATTCCGGTCTCCC
DNA 2: TGGTGGCTACGACGGGATT
B5: CACGUUG (DNA:RNA)
RNA: B1 RNA with U25C, A27C, C30U
DNA 1: CAATCTGAATTCCGGTCTCCC
DNA 2: TGGTGGCTACGACGGGATT
B6: UACGUAG (DNA:RNA)
RNA: B1 RNA with A27C, C30A
DNA 1: CAATCTGAATTCCGGTCTCCC
DNA 2: TGGTGGCTACGACGGGATT
B7: CAGUUCA (DNA:RNA)
RNA: B1 RNA with U25C, A27G, G28U, G31A
DNA 1: CAATCTGAATTCCGGTCTCCC
DNA 2: TGGTGGCTACGACGGGATT
B8: GGCUCGG (DNA:RNA)
RNA: B1 RNA with U25G, A26G, A27C, G28U, U29C, C30G
DNA 1: CAATCTGAATTCCGGTCTCCC
DNA 2: TGGTGGCTACGACGGGATT
B9: CGGAUAG (DNA:RNA)
RNA: B1 RNA with U25C, A26G, A27G, G28A, C30A
DNA 1: CAATCTGAATTCCGGTCTCCC
DNA 2: TGGTGGCTACGACGGGATT
B10: CUCGUGA (DNA:RNA)
RNA: B1 RNA with U25C, A26U, A27C, C30G, G31A
DNA 1: CAATCTGAATTCCGGTCTCCC
DNA 2: TGGTGGCTACGACGGGATT
B11: UAGACUU (DNA:RNA)
RNA: B1 RNA with A27G, G28A, U29C, C30U, G31U
DNA 1: CAATCTGAATTCCGGTCTCCC
DNA 2: TGGTGGCTACGACGGGATT
B12: GCACUGG (DNA:RNA)
RNA: B1 RNA with U25G, A26C, G28C, C30G
DNA 1: CAATCTGAATTCCGGTCTCCC
DNA 2: TGGTGGCTACGACGGGATT
B13: GCGAAUC (DNA:RNA)
RNA: GGGAGACCGGAAUUCAGAUUGUCCGCGAAUCUUAAAUCCCGUCGUAGCCACCA
DNA 1: CAATCTGAATTCCGGTCTCCC
DNA 2: TGGTGGCTACGACGGGATT
B14: UGCCCAA (DNA:RNA)
RNA: B1 RNA with A26G, A27C, G28C, U29C, C30A, G31A
DNA 1: CAATCTGAATTCCGGTCTCCC
DNA 2: TGGTGGCTACGACGGGATT
B15: UCUGUGA (DNA:RNA)
RNA: B1 RNA with A26C, A27U, C30G, G31A
DNA 1: CAATCTGAATTCCGGTCTCCC
DNA 2: TGGTGGCTACGACGGGATT
B16: AGACGGG (DNA:RNA)
RNA: B1 RNA with U25A, A26G, G28C, U29G, C30G
DNA 1: CAATCTGAATTCCGGTCTCCC
DNA 2: TGGTGGCTACGACGGGATT
B17: CCCUUCG (DNA:RNA)
RNA: B1 RNA with U25C, A26C, A27C, G28U
DNA 1: CAATCTGAATTCCGGTCTCCC
DNA 2: TGGTGGCTACGACGGGATT
B18: UGUAUAG (DNA:RNA)
RNA: B1 RNA with A26G, A27U, G28A, C30A
DNA 1: CAATCTGAATTCCGGTCTCCC
DNA 2: TGGTGGCTACGACGGGATT
B19: AGGGGUU (DNA:RNA)
RNA: B13 RNA with G25A, C26G, A28G, A29G, C31U
DNA 1: CAATCTGAATTCCGGTCTCCC
DNA 2: TGGTGGCTACGACGGGATT
B20: UACACAG (DNA:RNA)
RNA: B1 RNA with A27C, G28A, U29C, C30A
DNA 1: CAATCTGAATTCCGGTCTCCC
DNA 2: TGGTGGCTACGACGGGATT
B21: ACUCCUG (DNA:RNA)
RNA: B13 RNA with G25A, G27U, A28C, A29C, C31G
DNA 1: CAATCTGAATTCCGGTCTCCC
DNA 2: TGGTGGCTACGACGGGATT
B22: CGCUAUU (DNA:RNA)
RNA: B13 RNA with G25C, C26G, G27C, A28U, C31U
DNA 1: CAATCTGAATTCCGGTCTCCC
DNA 2: TGGTGGCTACGACGGGATT
B23: UGGAGGU (DNA:RNA)
RNA: B13 RNA with G25U, C26G, A29G, U30G, C31U
DNA 1: CAATCTGAATTCCGGTCTCCC
DNA 2: TGGTGGCTACGACGGGATT
B24: ACUACAG (DNA:RNA)
RNA: B13 RNA with G25A, G27U, A29C, U30A, C31G
DNA 1: CAATCTGAATTCCGGTCTCCC
DNA 2: TGGTGGCTACGACGGGATT
B25: GGCUUUU (DNA:RNA)
RNA: B13 RNA with C26G, G27C, A28U, A29U, C31U
DNA 1: CAATCTGAATTCCGGTCTCCC
DNA 2: TGGTGGCTACGACGGGATT
B26: CAUUUAC (DNA:RNA)
RNA: B1 RNA with U25C, A27U, G28U, C30A, G31C
DNA 1: CAATCTGAATTCCGGTCTCCC
DNA 2: TGGTGGCTACGACGGGATT
B27: GCAAUCG (DNA:RNA)
RNA: B1 RNA with U25G, A26C, G28A
DNA 1: CAATCTGAATTCCGGTCTCCC
DNA 2: TGGTGGCTACGACGGGATT
B28: GAAAAGG (DNA:RNA)
RNA: B13 RNA with C26A, G27A, U30G, C31G
DNA 1: CAATCTGAATTCCGGTCTCCC
DNA 2: TGGTGGCTACGACGGGATT
B29: GCUACAC (DNA:RNA)
RNA: B13 RNA with G27U, A29C, U30A
DNA 1: CAATCTGAATTCCGGTCTCCC
DNA 2: TGGTGGCTACGACGGGATT
B30: CUCGAGU (DNA:RNA)
RNA: B13 RNA with G25C, C26U, G27C, A28G, U30G, C31U
DNA 1: CAATCTGAATTCCGGTCTCCC
DNA 2: TGGTGGCTACGACGGGATT
B31: UUGCAAA (DNA:RNA)
RNA: B13 RNA with G25U, C26U, A28C, U30A, C31A
DNA 1: CAATCTGAATTCCGGTCTCCC
DNA 2: TGGTGGCTACGACGGGATT

Target: T1, RBFOX1 RRM (Homo sapiens, UniProt Q9NWB1 109-208)
T1 sequence: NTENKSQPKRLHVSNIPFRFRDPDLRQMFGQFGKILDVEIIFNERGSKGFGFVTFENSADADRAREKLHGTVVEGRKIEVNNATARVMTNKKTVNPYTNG
Test: EMSA; HiTS-Eq, 1 nM pool, 10 min; buffer printed only for the single-RNA assays: 10 mM Tris pH 7.5, 150 mM NaCl, 3.4 mM EDTA, 0.001% NP-40, 30 C
Details: tags: His6 N-terminal (pET28a); label: 5' 32P
Summary of the method: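 Relative association constants, normalised to the cognate motif, were derived by comparing read counts of each RNA species with those of the control reaction. The RNA sequenced was the free fraction, separated by 8% native PAGE after a 10 min equilibration in 50 µL of 1 nM 5′-radiolabelled RNA (7 randomized nucleotides) with increasing concentrations of purified wild-type or mutant RbFox RRM.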

Binder | binding signal
B1 | 0.00936 KA relative to UGCAUGU
B2 | 0.014 KA relative to UGCAUGU
B3 | 0.0166 KA relative to UGCAUGU
B4 | 0.00479 KA relative to UGCAUGU
B5 | 0.0122 KA relative to UGCAUGU
B6 | 0.0159 KA relative to UGCAUGU
B7 | 0.00458 KA relative to UGCAUGU
B8 | 0.0101 KA relative to UGCAUGU
B9 | 0.0228 KA relative to UGCAUGU
B10 | 0.00777 KA relative to UGCAUGU
B11 | 0.00623 KA relative to UGCAUGU
B12 | 0.0189 KA relative to UGCAUGU
B13 | 0.0124 KA relative to UGCAUGU
B14 | 0.0128 KA relative to UGCAUGU
B15 | 0.0143 KA relative to UGCAUGU
B16 | 0.00285 KA relative to UGCAUGU

Binder | binding signal
B17 | 0.00212 KA relative to UGCAUGU
B18 | 0.0148 KA relative to UGCAUGU
B19 | 0.0261 KA relative to UGCAUGU
B20 | 0.00791 KA relative to UGCAUGU
B21 | 0.00677 KA relative to UGCAUGU
B22 | 0.00582 KA relative to UGCAUGU
B23 | 0.024 KA relative to UGCAUGU
B24 | 0.00303 KA relative to UGCAUGU
B25 | 0.0115 KA relative to UGCAUGU
B26 | 0.00178 KA relative to UGCAUGU
B27 | 0.0112 KA relative to UGCAUGU
B28 | 0.00901 KA relative to UGCAUGU
B29 | 0.00819 KA relative to UGCAUGU
B30 | 0.0119 KA relative to UGCAUGU
B31 | 0.0109 KA relative to UGCAUGU
